# The supplement of paper PMC11417369
# ± gives the standard deviation of the averaged measurements. The list shows a part of the results.
# System: PfAP2-I AP2 domain 3 (GST-tagged)
# Experiment: gcPBM binding intensity (ln(normalized median fluorescence intensity)); higher = stronger DNA binding
# Outline: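 The binding buffer was 1× PBS containing 1% milk, 0.2 mg/ml BSA, 0.5% salmon testes DNA and 0.03% Triton X-100. In it, GST-tagged P. falciparum DNA-binding domains expressed in E. coli were applied for 1 h to an Agilent 4 × 180k array of primer-extended double-stranded 36-bp intergenic genomic probes plus negative controls. Binding intensity, read with Alexa488 anti-GST antibody and a 488 nm scan, is the highest Masliner-normalised natural-log median intensity across replicate spots of either probe orientation.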
row,Sequence,gcPBM binding intensity (ln)
1,TATTATTTTTTAAATTGTACAATAAATTATAAAAGG [XGTACX_site1162],7.89 ± 0.27
2,CAGCTCTTAAAAATTACACACATATACTCATATATA [CACACA_site5757],7.63 ± 0.38
3,TTTTTTTCTTTATTAGCACACATAATATTATATATG [CACACA_site8841],8.81 ± 0.45
4,TATATCATTATATAAACACACAATATGTTTTTTATA [CACACA_site3781],7.42 ± 0.54
5,ACCTAAAAGGTATAATATATAAATAAAAAAAAAAAT [CACACA_negctrl_site134],7.58 ± 0.66
6,TATTAATCTAATTCATAAAAAATGATCTATTTTGTT [CACACA_negctrl_site1035],7.24 ± 0.62
7,AAAATGAACAGACACACACACATATTTATATTTATA [CACACA_site7182],7.75 ± 0.42
8,TAGAATAATCTATAAACACACAAACACAACAAAAGA [CACACA_site7861],8.21 ± 0.092
9,AACATTTGATAAGATACACACACAAGGAAAAAAATA [CACACA_site8004],8.01 ± 0.67
10,ACAAATAAAAATATTACACACACTATTCTAGTGATA [CACACA_site6812],7.55 ± 0.49
11,GACAAATTATTGTGTACACAATATTATTATATATAC [CACACA_site6020],8.22 ± 0.41
12,CTTATGTTTTTTAAGTGTACATATTATACGTATTAT [XGTACX_site1176],8 ± 0.13
13,TAAATATATATAATTACACACTTTTCTATAATATGA [CACACA_site711],7.7 ± 0.47
14,TTAAGATATATAAAGAGTACACATAAGAGTAATGCT [XGTACX_site58],7.88 ± 0.45
15,TATAATACATTATATTGTACTATATTATAATAAATT [XGTACX_site5934],7.48 ± 0.33
16,ATATAATTACCATATGGTACACACATATATATATGT [XGTACX_site7393],8.31 ± 0.47
17,ATATTACCCATATATGCACACATTGTAGTTATTTAT [CACACA_site2636],9.58 ± 0.028
18,ATATCGTGTGCATTAACACACATTTATTTGAATAAA [CACACA_site7162],10.9 ± 0.5
19,GATATATAAATAGATACACACATACATACATACATA [CACACA_site6260],8.02 ± 0.7
20,AAAAAAAAAAAAAAAACACACATAAATAGCTCAAAT [CACACA_site3973],8.78 ± 0.49
21,CACATACCCATACAAACACACATTATATATATATAT [CACACA_site4965],9.205 ± 0.035
22,TACGATTAAAAAAAATGTACAGATTTTTATAGAATA [XGTACX_site6561],7.54 ± 0.35
23,TATCATTTTGTATATAGTACATATATAAAATCGTTA [XGTACX_site3875],7.54 ± 0.38
24,AAAAAAAATAAAAATAAAAATAAAAATAAAAATAAA [GTGCAC_negctrl_site437],7.89 ± 0.83
